Experimental data reported in the supplement of paper PMC4466236.
The full ranking holds about 33,000 sequences; the median of “E-score (dimensionless, -0.5 to 0.5)” is about -0.058, and the highest 2% start at about 0.35. Some of the results follow.

The sequences below were run on MvaT (assay: PBM 8-mer E-score (mean of HK and ME arrays) (E-score (dimensionless, -0.5 to 0.5)); higher = stronger relative binding preference; most listed sequences are background and not binding sites).
Summary of the method: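 Full-length P. aeruginosa MvaT carrying an N-terminal glutathione S-transferase tag was tested by protein binding microarray following a previously described protocol. Two universal double-stranded 60-mer arrays, ME and HK, were used, each with a constant 25-mer primer region and a variable 35-mer region covering all 8-mers. The rank-based E-score is the mean of the two arrays, parsed with a custom script. Its range runs from -0.5 to 0.5 for each 8-mer.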

Row | Sequence | PBM 8-mer E-score
1 | ATACCATG | 0.0314
2 | AGGAATAA | 0.259
3 | ACCCTGCC | 0.0684
4 | GGCTCGCA | -0.282
5 | GATGCGAA | 0.0654
6 | ATGTATCC | 0.202
7 | ATTGGAAG | 0.139
8 | GCACAATA | 0.26
9 | GACTGAAA | -0.0305
10 | AGCCATCA | -0.131
11 | AATATTAT | 0.445
12 | CGTTAACC | 0.0719
13 | CGAAAACC | -0.0776
14 | TCTAGGAA | -0.0425
15 | GAGAAAGA | -0.0554
16 | GAGCAAAA | -0.0501
17 | CACTACGC | -0.158
18 | ATCCAGGA | 0.0499
19 | TGACTACA | 0.109
20 | AACCATAC | 0.0324
21 | CAACTGCG | -0.0509
22 | CTCCCTCC | -0.204

Row | Sequence | PBM 8-mer E-score
23 | CACTTGGA | 0.011
24 | AGAGTCAC | -0.132
25 | ACTAGTAA | 0.24
26 | CAGGTAGG | -0.3
27 | GAACAGCC | -0.31
28 | ACATTCGG | -0.0277
29 | AGATACTA | 0.143
30 | AGGCCCTA | -0.185
31 | ACTACGTA | -0.0219
32 | CCCATCTA | -0.0587
33 | ACACCATA | 0.0603
34 | ATGATCCA | -0.00729
35 | AATCTAAC | 0.198
36 | TAACCATA | 0.1
37 | AGCATATC | -0.0071
38 | GCGTTTGA | -0.185
39 | AATATTGT | 0.355
40 | AAAGAGGG | -0.217
41 | AGCGCTAC | -0.0554
42 | CTGCCATA | -0.149
43 | ATTTGCGC | 0.183
44 | GATCCCAC | 0.0328

Row | Sequence | PBM 8-mer E-score
45 | AATCTTAG | 0.0795
46 | AGTGTTAT | 0.265
47 | GTAGATGA | 0.0641
48 | TGGATCCA | -0.097
49 | GGCGAAAC | -0.0209
50 | GGTTGGCA | -0.0827
51 | CTAAGTCA | -0.101
52 | CATTCGTC | -0.183
53 | ATAGCTGC | 0.0379
54 | GCGGGCAA | -0.0254
55 | AATTCGCC | 0.13
56 | CTACGTGA | -0.144
57 | CCCAACTA | 0.0767
58 | CCCGAGAG | -0.218
59 | AGTACGTG | 0.00872
60 | GGTGCCCA | -0.241
61 | ATCAACGC | -0.00753
62 | ATACAGAG | 0.156
63 | GCCGCAAC | -0.0726
64 | CTTGCAAC | 0.046
65 | GCTGACAA | -0.00171
66 | AAAATCCC | -0.0792

Row | Sequence | PBM 8-mer E-score
67 | GTACTAGA | -0.0314
68 | AAGCCTGA | -0.279
69 | GAACCTAC | -0.248
70 | ACATCGGG | -0.12
71 | ACTTAGTA | 0.275
72 | CGCGGTCA | -0.275
73 | ACTTACAG | 0.054
74 | ATACGCGA | 0.154
75 | CAGTCTCG | -0.14
76 | CTCTACTA | -0.0157
77 | ATACAGGG | -0.012
78 | CCGGATCA | -0.133
79 | GTTGGCGA | -0.0995
80 | AATACGAT | 0.207
81 | CCGATGCA | -0.148
82 | ATACCGCA | 0.145
83 | CTGGTCCA | -0.192
84 | CCTGTGCC | -0.271
85 | GATAGCGA | -0.116
86 | CCAGCTAG | -0.265
87 | AGAAGAAG | -0.0887
88 | CTCAGGCA | -0.144

Row | Sequence | PBM 8-mer E-score
89 | CGGCTTGC | -0.279
90 | AACACAGC | 0.0432
91 | ATCTATAC | 0.138
92 | CCACTCCC | -0.19
93 | CTCAACAC | 0.0487
94 | CAGGCGGC | -0.25
95 | CATATCGA | 0.166
96 | GGTTGGGA | -0.177
97 | ACCGTACT | -0.0584
98 | AATCCTCT | -0.0384
99 | CACTTCAG | -0.0275
100 | ACACTTAT | 0.331
101 | CTGACCCC | -0.266
102 | ACCGTTGA | -0.17
103 | AGCTAGCC | -0.22
104 | CCTCAACC | -0.226
105 | CTCTCGGC | -0.112
106 | AAGTGGGA | -0.0974
107 | ACTCCGTC | -0.0626
108 | GCCCGAAC | -0.14
109 | AGTCCCTC | -0.154
110 | GGAAGGAA | -0.27
